The source of these data is the RNAGym collection of RNA variant scans (doi:10.1093/nar/gkz1192).

B1: CPEB3 Ribozyme (parent)
chain: UAACAGGGGGCCACAGCAGAAGCGUUCACGUCGCAGCCCCUGUCAGAUUCUGGUGAAUCUGCGAAUUCUGCUGUAUAUCUC

Read counts are not given, so values of variants with three or more changes are uncertain.

The variants in the data set derive from B1. Briefly: self-cleavage, relative activity (ratio to wild type); higher = more cleavage; in vitro, sequencing. In short, it runs like this: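 For each CPEB3 ribozyme variant, relative activity is its cleaved/total read fraction divided by the unmutated ribozyme's. Barcoded error-prone PCR libraries were transcribed by T7 RNA polymerase (5 hours, 37°C) and held in DNase I for 15 min before an EDTA stop, with cleavage occurring throughout. Template-switching reverse transcription and Illumina sequencing were used to read the RNAs. A 5-read minimum applied, and results are the mean of three batches.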
Take UAACAGGGGGCCGCGGCAGAAGCGUCCACGUCGCAGCCCCUGUCAGAUUCUGGUGAAUCUGCGAAUUCGGCUGUAUAUCUC [A13G A15G U26C U69G]: the self-cleavage turned out to be 0.17. Regarding UAACAGGGGGCCGCGGCAGAAGCGUUCACGUCGCAGCCCCCGUCUGAUUCUGGUGAAUCUGCGAAUUCUGCUGUAUAUCUC [A13G A15G U41C A45U], the self-cleavage came out at 0.09.

Regarding UAACAGGGGGCCGCGGCAGAAGCACUCACGUCGCAGCCCCCGUCAGAUUCUGGUGAAUCUGCGAAUUCUGCUGUAUAUCUC [A13G A15G G24A U25C U41C], the self-cleavage worked out at 0.43. On to UAACAGGGGGCCGCGGCGGAAGCGUUCACGUCGCAGCCCCUGUCAGAUUCUGGUGAAUCUGCGAAUUCUGCUGUAUAUCCC [A13G A15G A18G U80C], for which the self-cleavage worked out at 0.08. In the case of UAACAGGGGGCCGCCGCAGAAGCGUUCACGUCGCAGCCCCUGUCAGAUUCUGGUGAAUCUGCGAAUUCUGAUGUGUAUCUC [A13G A15C C71A A75G], the self-cleavage worked out at 0.12. With UAACAGGGGGCCGCGGCAGUAGCGUCCACGUCGCAGCCCCUGUCAGAUUAUGGUGAAUCUGCGAAUUCUGCUGUAUAUUUC [A13G A15G A20U U26C C50A C79U], the self-cleavage came to 0.4. Take UAACAGGGGGCCCCAGCAGAAGCGUUCACGUCGCAGCCCCCGUCAGAUUCUGGUGAAUCUGCGAAUUCAGCUAUAUAUCUC [A13C U41C U69A G73A]: the self-cleavage was found to be 1.02.

Consider UAACAGGGGGCCCCAGCAGAAGCGUUCACGCUGCAGCCCCAGUCAGAUCCUGGUGAAUCUGCGAAUUCUGCUGUAUAUCUC [A13C U31C C32U U41A U49C], for which the self-cleavage is 0.04. Regarding UAACAGGGGGCCGCGGCAGAAGCGUUCACGUUGCAGCCCCCGUCUGAUUCUGGUGAAUCUGCGAAUUCUGCUGUUUAUCUC [A13G A15G C32U U41C A45U A75U], the self-cleavage came out at 0.05.

On to UAACAGGGGGCCCCAGCAGAAGCGUUCACGUCGCAGCCCCCGUCAGAUUCAGGUGAAUCUGCGAAUGCUACAGUAUAUCUC [A13C U41C U51A U67G G70A U72A], for which the self-cleavage stood at 0.17.

Take UAACAGGGGGCCCCAGCAGAAGCGUUCACGUCGCAGCCCCUGUCAGAUUCUGGAGAAUCUGCGAACUCUGCUGUAUAUCUC [A13C U54A U66C]: the self-cleavage is 0.37. The figure for UAACAGGGGGCCCCAGCAGAAGCGUUCACGCCGCAGCCCCUGUCAGACUCUGGUGAAUCUGCGAAUACUGCUGUACAUCGC [A13C U31C U48C U67A U76C U80G] is 0.21; for UAACAGGGGGCCCCAGCAGAAGCGUUCACGUCGCAGCCCCUGUCAGAUUCUGGUGAAUCUGCGAAUCCUGCUGAAUAUCUC [A13C U67C U74A] it is 0.16. On to UAACAGGGGGCCGCGGCAGAAGCGUUCACAUCGCAGCCCCUGUCAGAUUCUGGUGAAUCUGCGAAUUCCGCUGUAUAUCUC [A13G A15G G30A U69C], for which the self-cleavage turned out to be 0.22.

As to UAACAGGGGGCCCCAGCAGAAGCGUUCACGUCGCAGCCCCUGCCAGAUUAUGGUGAACCUGCGAAUUCUGCUGUAUACCUC [A13C U43C C50A U58C U78C], the self-cleavage turned out to be 0.21. With UAACAGGGGGCCCCAGCAGAAGCGUUCACGUCGCAGCCCCGGUCAGAUUCCGGCGAAUCUGCGAAUUCUGCCGUGUAUCUC [A13C U41G U51C U54C U72C A75G], the self-cleavage stood at 0.15. With UAACAGGGGGCCCCAGCAGAAGCGUUCACGUCGCAGCCCCUGUCAGAUUCUGGUGAAUCUGCGAACUCUGCCGUAUAUCUC [A13C U66C U72C], the self-cleavage was determined as 0.22. In the case of UAACAGGGGGCCGCGGCAGUAGCGUUCACGUCGCAGCCCCUGUCAGAUUCUGGAGAAUCUGCGAAUUCUGCUGUAUAUCUC [A13G A15G A20U U54A], the self-cleavage was determined as 0.35. For the variant UAACAGGGGGCCCCAGCAGAAGCGUUCACGUCGCAGCCCCUGCCAGAUUCUGGAGAAUCUGCGAAUUCUGCUGUAUAUCUC [A13C U43C U54A], the self-cleavage came to 0.87. With UAACAGGGGGCCCCAGCAGAAGCGUUCACGUCGCAGCCCCUGCCAGAUUCUGGUGAAUCUGCAAAUUCUGCUGUUUAUCUC [A13C U43C G63A A75U], the self-cleavage came to 0.54. For UAACAGGGGGCCCCAGCAGAAGCGUUCACGUCGCAGCCCCUGACAGAUUCUGGCGAAUCUGCGAAUUCUGCUGUAUAUCUU [A13C U43A U54C C81U], the self-cleavage worked out at 1.24. The figure for UAACAGGGGGCCCCAGCAGAAGCGUUCACGUCGCAGCCCCUGUCAGAUUCUGGUGAAUCUGCGAAUUCUGCUGCAUGUCUC [A13C U74C A77G] is 1.18; for UAACAGGGGGCCGCGGCAGAAGCGUUCACGUCGCAGCCCCUGUCAGAUUCUGGUGAAUCAGCGAAUUCUGCUGUAUAUCUC [A13G A15G U60A] it is 0.09. Take UAACAGGGGGCCCCAGCAGAAGCGUUCACGUCGCAGCCCCCGUCAAAUUCUGGUGAGUCUGCGAAUUCUGCUGUAUAUCUC [A13C U41C G46A A57G]: the self-cleavage came out at 0.49. In the case of UAACAGGGGGCCGCGGCAGAAGCGUUCACGCCGCAGCCCCUGUCAGAUUCUGGUGAACCUGCGAUUUCUGCCGUAUAUCUC [A13G A15G U31C U58C A65U U72C], the self-cleavage was found to be 0.1. The figure for UAACAGGGGGCCGCGGCAGAAGCGUUCGCGUCGCAGCCCCUGUCAGAUUCUGGUGAAUCUGCGAAUUCAGCCGUAUAUCUC [A13G A15G A28G U69A U72C] is 0.42.

Take UAACAGGGGGCCGCCGCAGAAGCGUUCACGUCGCAGCCCCUGUCAGAUUCUGGCGAAUCUGCGAGUUCUGCUGUAUAUCUC [A13G A15C U54C A65G]: the self-cleavage turned out to be 0.15. On to UAACAGGGGGCCCCAGCAGAAGCGUUCACGUCGCAGCCCCUGUCAGAUUCUGGUGAAUCCGCGAACUCUGCUGUAUAUCUC [A13C U60C U66C], for which the self-cleavage came to 0.21.

Take UAACAGGGGGCCGCGGCAGAAGCGUUCACGUCGCAGCCCCUGUCAGAUUCUGGUGAAUCAGCGAACUCUGCUGUAUAUCCA [A13G A15G U60A U66C U80C C81A]: the self-cleavage is 0.14. With UAACAGGGGGCCCCAGCAGAAGCGUUCACGUCGCAGCCCCUGUCAGAUCCUGGUGAAUCUGCGAAUCCUGCUGUAUAUCUC [A13C U49C U67C], the self-cleavage is 0.26. For the variant UAACAGGGGGCCCCAGCAGAAGCGUUCACGUCGCAGCCCCUGUCAGAUUCUGGUGAAUCGGCGAAUUACGCUGUAUAUCUC [A13C U60G C68A U69C], the self-cleavage stood at 0.1. Consider UAACAGGGGGCCCCAGCAGAAGCGUUCACGUCGCAGCCCCUGUCAGAUUCUGGAGAAUCUGCGAAUUCUGCUGUACAUCUC [A13C U54A U76C], for which the self-cleavage was 0.92.

For the variant UAACAGGGGGCCGCCGCAGAAGCGUUCACGUCGCAGCCCCUGUCAGAUUCUGGUGAAUCCGCGAAUUCAGCUGUAUAUCUC [A13G A15C U60C U69A], the self-cleavage was 0.4.

As to UAACAGGGGGCCCCAGCAGAAGCGUUCACGCCGCAGCCCCUGCCAGAUUCUGGUGAAUCUGCGAAUUCUGCUGUAUAUCUC [A13C U31C U43C], the self-cleavage worked out at 0.46.
